Assay results: PubChem BioAssay (NCATS)
The shares of active, inactive and inconclusive entries below differ from those in the screen. For some of these results: A potency beside an inconclusive call is a rough fit, not a confirmed value. Active and inactive are the calls of the source. The call rests on the fitted dose curve; in most records, active means well fitted curve in the direction sought with a large enough effect; inconclusive means small, poorly fitted or top-dose-only effect, or another doubt; inactive means no such curve, though single readings can be large; an effect the other way counts as inactive or inconclusive. Numbered stars: 1 amine (or outer) side, 2 acyl side, 3 side chain; on linkers, the order of the positions; unused ones are H or OH. Square brackets hold non-standard residues; d marks the D form. Peptide text beside a SMILES is read from it. ξ: configuration not given here. X4 = O=C(C1CC2(c3ccc(O)cc3)c3ccccc3NC2N1[*:1])[*:2]; ξW = NC(Cc1c[nH]c2ccccc12)C(=O)O; ξY = NC(Cc1ccc(O)cc1)C(=O)O

Legend:
[1] = HPAF-II Cancer Cell Toxicity qHTS against the NCATS CANVASS Library (AID 1347346); further: nearly all actives have a fitted effect of over 55% in size
In short: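 1000 HPAF-II cells/well; 4 h pre-incubation; 11-pnt compound titration; 72 h, 37 degrees C/5% CO2; CellTiter-Glo, 15 min RT; luminescence read.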

[2] = UWB1.289 Cancer Cell Toxicity qHTS against the NCATS CANVASS Library (AID 1347347); further: potency means the concentration at half of the fitted maximal effect; nearly all actives have a fitted effect of over 60% in size
In short: (§1)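 Cells were seeded at 1000 per well, allowed 4 h at 37 degrees C/5% CO2, then pin-treated with an 11-point compound series. After 72 h, viability was read as CellTiter-Glo luminescence following 15min at room temperature.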

[3] = Panc-1005 Cancer Cell Toxicity qHTS against the NCATS CANVASS Library (AID 1347349); further: potency means the concentration at half of the fitted maximal effect; nearly all actives have a fitted effect of over 60% in size
In short: as §1

[4] = COV-362 Cancer Cell Toxicity qHTS against the NCATS CANVASS Library (AID 1347352); further: potency means the concentration at half of the fitted maximal effect
In short: (§2)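 1000 cells/well, 4 h pre-incubation 37 °C/5% CO2; 11-pnt titration; 72 h; CellTiter-Glo 15 min RT, luminescence.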

[5] = UWB1.289-WTBRCA1 Cancer Cell Toxicity qHTS against the NCATS CANVASS Library (AID 1347354); further: potency means the concentration at half of the fitted maximal effect
In short: as §2

[6] = HEK-293 Cancer Cell Toxicity qHTS against the NCATS CANVASS Library (AID 1347355); further: nearly all actives have a fitted effect of over 65% in size
In short: as §2

[7] = HPAF-II 12hr Apoptosis Induction qHTS against the NCATS CANVASS Library (AID 1347358)
In short: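 Caspase-Glo 3/7 luminescence (DEVD substrate) reports caspase activity in HPAF-II cells after 12 h compound treatment at 37 degrees C. Compounds were tested in an 11-point series. Doxorubicin served as control.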

[8] = qHTS for ATAD5 Antagonist screened against the NCATS CANVASS Library (AID 1347370);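 further: HEK293T cells carrying an ATAD5 luciferase reporter co-treated with 10 µM 5-fluorouridine; nearly all actives have a fitted effect of over 65% in size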
In short: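 HEK293T-ATAD5 luc reporter, 2000 cells/well; 5hr attach; cpd + 10 uM 5-FUrd; 16hr 37C, 5% CO2. Readouts: CellTiter-Fluor fluorescence (1hr), then Amplite luciferase luminescence (30min RT).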

[9] = qHTS for Antimalaria activity screened against the NCATS CANVASS Library (AID 1347380); further: potency means the concentration at half of the fitted maximal effect; nearly all actives have a fitted effect of over 40% in size
In short: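 SYBR Green fluorescence (ex 485, em 535 nm) read after saponin/Triton lysis and 18 h further incubation; Dd2 asexual blood-stage parasites, 72 h compound exposure, 11-pt concentration series, 2.5% hematocrit, 0.3% parasitemia.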

[10] = qHTS for inhibitors of ER calcium dysfunction: SERCaMP assay screened against the NCATS CANVASS Library (AID 1347393); details: SH-SY5Y GLuc-SERCaMP (Gaussia luciferase released on ER calcium loss) secretion, thapsigargin, luminescence; activity change, negative = inhibition: at 76.6 µM (top of the series) unless noted; further: potency means the concentration at half of the fitted maximal effect; nearly all actives have a fitted effect of over 40% in size
In short: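 Thapsigargin-induced ER calcium depletion drives GLuc-SERCaMP secretion from SH-SY5Y cells; compounds given 16 h beforehand were scored by lowered coelenterazine luminescence after 4 h challenge.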

[11] = qHTS for inhibitors of Wild type Zika virus screened against the NCATS CANVASS Library (AID 1347396);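 further: ATP luminescence of surviving cells so rescue from viral cell killing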
In short: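 Protection against wild-type Zika cytopathic effect is measured in African green monkey Vero 766 cells exposed to an 11-point compound series. Surviving cells are quantified by CellTiter Glo luminescence after 72 h.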

[12] = OV-SAHO Cancer Cell Toxicity qHTS against the NCATS CANVASS Library (AID 1347348); details: OV-SAHO viability, CellTiter-Glo luminescence, 72 h; activity change, negative = cytotoxicity: at 38.3 µM (top of the series); further: potency means the concentration at half of the fitted maximal effect; nearly all actives have a fitted effect of over 55% in size
In short: as §1

[13] = SW1088 Cancer Cell Toxicity qHTS against the NCATS CANVASS Library (AID 1347350); further: potency means the concentration at half of the fitted maximal effect; nearly all actives have a fitted effect of over 75% in size
In short: as §1

[14] = U-118MG Cancer Cell Toxicity qHTS against the NCATS CANVASS Library (AID 1347351); further: potency means the concentration at half of the fitted maximal effect
In short: as §1

[15] = A2780 Cisplatin Sensitive Ovarian Cancer Cell Toxicity qHTS against the NCATS CANVASS Library (AID 1347353); further: nearly all actives have a fitted effect of over 60% in size; further: potency means the concentration at half of the fitted maximal effect
In short: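 750 cells/well, 4 h settle; 11-pt cpd titration; 72 h, 37 °C, 5% CO2; ATPLite 10 min RT; luminescence read.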

[16] = system: NAD(P)H diaphorase (Clostridium kluyveri); assay: Diaphorse counterscreen qHTS: Assay Interference Panel against the NCATS CANVASS Library (AID 1347362); further: potency means the concentration at half of the fitted maximal effect
In short: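 Counterscreen for coupling-enzyme interference: resorufin fluorescence from resazurin/NADH turnover, read after 5 min at room temperature. Compounds were tested over an 11-point series after 15 min dark preincubation with diaphorase in PBS-Tween.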

[17] = KB-8-5-11 Cancer Cell Toxicity qHTS against the NCATS CANVASS Library (AID 1347364); details: activity change, negative = toxicity: at 46.1 µM (top of the series); further: potency means the concentration at half of the fitted maximal effect; nearly all actives have a fitted effect of over 75% in size
In short: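 CellTiter-Glo luminescence after 72 h exposure; 500 KB-8-5-11 cells/well, DMEM/10% FBS, 37C, 5% CO2; compounds in 11-pt qHTS. Follow-up confirmation included medium with 1uM tariquidar.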

[18] = KB-3-1 Cancer Cell Toxicity qHTS against the NCATS CANVASS Library (AID 1347366); further: potency means the concentration at half of the fitted maximal effect; nearly all actives have a fitted effect of over 75% in size
In short: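 CellTiter-Glo luminescence measured viability after 72 h at 37C. KB-3-1 cells were seeded at 500 per well in DMEM/10% FBS.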

[19] = MCF7 Cancer Cell Toxicity qHTS against the NCATS CANVASS Library (AID 1347369); details: activity change, negative = cytotoxicity: at 46 µM (top of the series); further: potency means the concentration at half of the fitted maximal effect
In short: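 Cytotoxicity was measured as CellTiterGlo luminescence (ATP) after 72 h at 37 °C. The cells were MCF7 at 500 per well, with an 11-point compound concentration series.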

[20] = target: Nuclear receptor subfamily 1 group I member 3 (Homo sapiens) (UniProt Q14994); assay: qHTS for Constitutive Androstane Receptor (CAR) Agonist screened against the NCATS CANVASS Library (AID 1347373)
Chain of UniProt Q14994 (Q14994 whole entry, looked up): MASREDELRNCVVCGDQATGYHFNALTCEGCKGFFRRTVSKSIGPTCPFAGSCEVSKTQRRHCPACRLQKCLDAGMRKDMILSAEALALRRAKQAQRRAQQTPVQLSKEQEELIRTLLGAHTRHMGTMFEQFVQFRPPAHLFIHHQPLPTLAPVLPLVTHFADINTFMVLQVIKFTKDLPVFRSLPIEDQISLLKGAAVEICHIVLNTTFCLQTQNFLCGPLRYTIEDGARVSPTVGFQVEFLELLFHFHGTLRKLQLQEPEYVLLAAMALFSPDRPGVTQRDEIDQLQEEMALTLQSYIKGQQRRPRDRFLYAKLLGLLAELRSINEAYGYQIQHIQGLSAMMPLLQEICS
In short: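 Luciferase read-out (ONE-Glo, 30 min RT) of CYP2B6-2.2kb promoter activity in double-stable HepG2-hCAR cells after 24hr compound exposure with 1.5uM PK11195 present; viability measured first by CellTiter-Fluor.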

[21] = Cytotoxicity qHTS for assessment of Hepg2 cells membrane integrity screened against the NCATS CANVASS Library (AID 1347387)
In short: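 LDH release read by fluorescence (560 nm ex/590 nm em) after CytoTox-ONE addition and 10 min RT; signal tracks lysed cells. HepG2, 2000 cells/well, plated overnight; compound 5 hr, 37C, 5% CO2, final 0.59 nM - 46 uM, 11 points.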

[22] = qHTS assay for small molecule disruptors of mitochondrial membrane potential screened against the NCATS CANVASS Library (AID 1347389); further: potency means the concentration at half of the fitted maximal effect; nearly all actives have a fitted effect of over 60% in size
In short: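 Red/green fluorescence ratio read-out: J-aggregates ex 540/em 590 nm, monomers ex 490/em 535 nm. HepG2, 1 hr compound treatment, then 30 min Mito-MPS dye at 37C. 11-pt qHTS concentration series.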

[23] = Secretion counterscreen for inhibitors of the SERCaMP assay screened against the NCATS CANVASS Library (AID 1347390); details: SH-SY5Y constitutive GLuc secretion, luminescence, 20 h; activity change, negative = inhibition: at 76.6 µM (top of the series)
In short: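 Counterscreen for secretory-pathway interference: after 4 h attachment, SH-SY5Y-GLuc cells were exposed 20 hours to compounds (final 0.001 - 77 uM), then coelenterazine added and GLuc luminescence recorded; Brefeldin A served as control.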

[24] = qHTS for activators of Nrf2/ARE signaling pathway screened against the NCATS CANVASS Library (AID 1347391); further: nearly all actives have a fitted effect of over 60% in size; further: potency means the concentration at half of the fitted maximal effect
In short: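 HepG2 ARE-bla; cpd 11-pt qHTS, 16 h 37C/5% CO2; CCF4 substrate 2 h RT; read ex 405 / em 460 + 530 nm. Viability by CellTiter-Glo luminescence, 30 min RT.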

[25] = qHTS for Hypoxia signaling pathway (HIF-1) antagonists against the NCATS CANVASS Library (AID 1347374)
In short: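 Beta-lactamase reporter under HRE control in ME-180 cells; CoCl2 stimulus (60 uM solution as added), compounds 11-pt qHTS, 17 h 37C. CCF4 dye 2 h RT, 460/530 nm emission. CellTiter-Glo viability in same wells.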

[26] = Redox Reaction Profiling qHTS: Assay Interference Panel against the NCATS CANVASS Library (AID 1347401); further: potency means the concentration at half of the fitted maximal effect
In short: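 Redox-cycling liability assessed as DTT-driven conversion of resazurin (5 uM, with 200 uM DTT, HEPES pH 7.3) to fluorescent resorufin. Fluorescence at 525/598 nm measured initially and after 15 min dark incubation.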

Measured: Potency
Tags describe the fitted curve by direction and shape.

O=Cc1ccc2n1C[C@@]1(C[C@H](O)[C@H](O)CO1)OC2
inactive: [1] | [6] | [7] | [8] | [11]
inconclusive: [2] 1.67 µM [cytotoxic, full curve] | [3] 16.8 µM [cytotoxic, single point] | [4] 26.5 µM [cytotoxic, single point] | [5] 8.38 µM [cytotoxic, full curve] | [9] 13.3 µM [rising, single point] | [10] 4.31 µM [inhibitor, partial curve, poor fit]

COc1ccc2[nH]c3c(c2c1)CCN1C[C@H]2C[C@@H](OC(=O)c4cc(OC)c(OC)c(OC)c4)[C@H](OC)[C@@H](OC)[C@H]2C[C@H]31
inconclusive: [2] 18.8 µM [cytotoxic, single point] | [12] 14.9 µM [cytotoxic, partial curve] | [13] 14.9 µM [cytotoxic, partial curve] | [14] 23.7 µM [cytotoxic, single point] | [4] 18.8 µM [cytotoxic, single point] | [15] 33.2 µM [cytotoxic, single point] | [16] 13.6 µM [inhibitor, partial curve, poor fit] | [17] 26.4 µM [cytotoxic, single point] | [18] 33.2 µM [cytotoxic, single point] | [19] 26.2 µM [cytotoxic, single point] | [20] 33.1 µM [activator, partial curve, poor fit] | [22] 23.4 µM [inhibitor, single point] | [23] 24.3 µM [inhibitor, partial curve, poor fit]
inactive: [21] | [24]
active: [9] 7.47 µM

C[C@@H]1C(=O)[C@]23CC[C@H]1C[C@]21O[C@H]2C(C)(C)C=CC(=O)[C@@]23COC1=O
inactive: [1]
inconclusive: [20] 33.1 µM [activator, single point] | [9] 0.0037 µM [cytotoxic, full curve, poor fit] | [24] 33.1 µM [activator, single point] | [10] 17.2 µM [inhibitor, partial curve]

CC[C@H](C)[C@H](NC(=O)C(Cc1ccc(O)cc1)NC(=O)C(Cc1c[nH]c2ccccc12)NC(=O)[C@H](C)N)C(=O)N1C(C(=O)NC(Cc2ccc(O)cc2)C(=O)O)CC2(c3ccc(O)cc3)c3ccccc3NC12 (some centres not stated) (H-A[ξW][ξY]I[X4][ξY]-OH)
inconclusive: [26] 27.1 µM [activator, single point]
inactive: [1] | [4] | [15] | [25]
